Measured values published in the supplement of paper PMC4604168 (melanoma cell lines).
The list shows a part of the results. Single values are uncertain, as repeats are few or missing.

Columns and labels:
Assay in all cases: cell count relative to DMSO control; melanoma cells; higher = more viable cells
Details in all cases: library dose: standard library concentration; 72 h
[1] = tested on: G361
[2] = tested on: IPC-298
[3] = tested on: IST-MEL1
[4] = tested on: LB2518-MEL
[5] = tested on: LOXIMVI
[6] = tested on: MEL-HO
[7] = tested on: MZ2-MEL
[8] = tested on: MeWo
[9] = tested on: RPMI7951
[10] = tested on: RVH-421
[11] = tested on: SkMel28
[12] = tested on: SkMel2
[13] = tested on: SkMel30
[14] = tested on: SkMel5
[15] = tested on: UACC257
[16] = tested on: UACC62
[17] = tested on: WM115
[18] = tested on: WM1716
[19] = tested on: WM1745
[20] = tested on: WM3526
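Note: cells treated in 1,536-well plates, then fixed and DAPI-stained, with nuclei counted from automated high-throughput microscope images.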

Row | Compound | cell count [1] | cell count [2] | cell count [3] | cell count [4] | cell count [5] | cell count [6] | cell count [7] | cell count [8] | cell count [9] | cell count [10] | cell count [11] | cell count [12] | cell count [13] | cell count [14] | cell count [15] | cell count [16] | cell count [17] | cell count [18] | cell count [19] | cell count [20]
1 | Nc1nc(F)nc2c1ncn2[C@@H]1O[C@H](CO)[C@@H](O)[C@@H]1O [fludarabine] + COc1cc(Nc2ncc(F)c(Nc3ccc4c(n3)NC(=O)C(C)(C)O4)n2)cc(OC)c1OC [Tamatinib] (first compound 1 µM, partner dose 2 µM) | 77.9% | 78.8% | 56% | 79.5% | 28.1% | 65.7% | 101% | 67.7% | 25.5% | 82% | 6.15% | 3.64% | 12.3% | 53.9% | 34.3% | 83.7% | 67.7% | 102% | 44.4% | 26.5%
2 | Nc1nc(F)nc2c1ncn2[C@@H]1O[C@H](CO)[C@@H](O)[C@@H]1O [fludarabine] + OCc1c[nH]c2ccccc12 [Indole-3-carbinol] (first compound 1 µM, partner dose 4 µM) | 76.9% | 62.3% | 76.6% | 70.8% | 79.9% | 71.5% | 79.6% | 94.5% | 70% | 59.8% | 1.37% | 0.524% | 19.7% | 25.2% | 35.5% | 60.8% | 84.9% | 97.8% | 74.6% | 22.7%
3 | CC(=O)c1c(C)c2cnc(Nc3ccc(N4CCNCC4)cn3)nc2n(C2CCCC2)c1=O [palbociclib] + O=C(O)c1ccc(-c2c[nH]c3ncc(-c4ccccc4)cc23)cc1C1CCCC1 [GSK650394] (first compound 0.2 µM, partner dose 0.8 µM) | 49.5% | 67.1% | 57.7% | 51.9% | 68% | 66.2% | 50.1% | 50.3% | 45.7% | 62.3% | 42.9% | 66.3% | 73.6% | 62% | 61.7% | 58.5% | 57.7% | 47.1% | 64.5% | 44.9%
4 | CC(=O)O[C@@]12CO[C@@H]1C[C@H](O)[C@@]1(C)C(=O)[C@H](O)C3=C(C)[C@@H](OC(=O)[C@H](O)[C@@H](NC(=O)OC(C)(C)C)c4ccccc4)C[C@@](O)([C@@H](OC(=O)c4ccccc4)[C@H]21)C3(C)C [Docetaxel] + Nc1ccn([C@@H]2O[C@H](CO)[C@@H](O)C2(F)F)c(=O)n1 [gemcitabine] (first compound 0.0005 µM, partner dose 0.002 µM) | 16.4% | 34.1% | 29.7% | 61.6% | 90.8% | 55.7% | 43.8% | 28.2% | 28.1% | 28.2% | 17.8% | 20.1% | 57.8% | 34.3% | 57.8% | 49.3% | 35.6% | 40.2% | 41.1% | 49.1%
5 | Nc1nc(F)nc2c1ncn2[C@@H]1O[C@H](CO)[C@@H](O)[C@@H]1O [fludarabine] + O=C(CCCCCCC(=O)Nc1ccccc1)NO [vorinostat] (first compound 1 µM, partner dose 0.4 µM) | 73.1% | 81.2% | 68.4% | 93.1% | 76.1% | 84.8% | 104% | 83.6% | 34.9% | 88.2% | 2.46% | 0.994% | 16.7% | 26.5% | 24.5% | 56.4% | 80.5% | 84.7% | 96.6% | 24.7%
